Values joined by “and” are separate entries in the source; they are usually repeats but may differ in a detail not shown here. Equal values may be shown once. In all, about 420,000 compounds went through this assay and about 50,000 (12%) were called active. Inconclusive results, whose numbers are uncertain, are shown with a selection of clear calls. The call rests on the fitted dose curve; in most records, active means well fitted inhibition curve with a large enough effect; inconclusive means small, poorly fitted or top-dose-only effect; inactive means flat fitted curve, though single readings scatter. Potencies beside an inconclusive call are fits to weak or partial responses and may not hold up.
assay: qHTS for Inhibitors of human tyrosyl-DNA phosphodiesterase 1 (TDP1): qHTS in cells in presence of CPT; details: chicken DT40 Tdp1-/-;hTDP1 cells + 20 nM CPT, ATP luminescence, 48 h; activity change, negative = growth inhibition: at 46.2 µM (top of the series); further: nearly all actives have a fitted effect of over 55% in size
Method in brief: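 Chicken DT40 Tdp1-/- cells complemented with human TDP1, 400 cells/well, exposed to compounds plus 20 nM camptothecin for at least 48 h at 37 C; viability read as ATP content by CellTiter-Glo luminescence.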
On the % scale 0 is the no-effect control and ±100 the full control effect; potency means the concentration at half of the fitted maximal effect; tags describe the fitted curve by direction and shape.

SMILES	Potency	activity change, negative = growth inhibition
CCOc1ccc(N2C(=O)C3C(C2=O)C3(c2ccccc2)c2ccccc2)cc1 (stereo not given)	active: 18.4 µM	–
CCN(CC)C(=O)CSc1nnc(-c2ccccc2)o1	inactive	–
Cc1ccc(NC(=O)Cn2cc(C(=O)C3CCCCC3)c3ccccc32)c(C)c1	inconclusive: 29.1 µM [inhibitor, single point]	–
COc1ccc(-c2csc(NC(=O)C3=COCCO3)n2)cc1OC	inconclusive: 18.4 µM [inhibitor, single point]	–
COc1ccccc1C(=O)N1C(CC(=O)Nc2cc(Cl)ccc2C)C(=O)NC2CCCCC21 (stereo not given)	inconclusive: 1.46 µM [inhibitor, full curve]	–
COc1ccc(NC(=O)c2oc3ccccc3c2NC(=O)COc2ccc(F)cc2)c(OC)c1	inconclusive: 6.51 µM [inhibitor, single point]	–
CCN(C(=O)CN1CCN(Cc2ccccc2)CC1)c1c(N)n(Cc2ccccc2)c(=O)[nH]c1=O	active: 11.6 µM	–
CCN(CC(=O)Nc1cc(Cl)ccc1C)C(=O)CCOc1ccccc1C	inconclusive: 23.1 µM [inhibitor, single point]	–
O=C(NCc1ccc(F)cc1)C(=O)NCC(c1ccco1)S(=O)(=O)c1cccs1 (stereo not given)	inconclusive: 29.1 µM [inhibitor, single point]	–
COc1ccc(C(CNC(=O)c2ccc(-c3nc4ccccc4s3)o2)N2CCCC2)cc1 (stereo not given)	active: 23.1 µM	–
Cc1sc2ncnc(N3CCC(C(=O)Nc4ccc(Cl)cc4Cl)CC3)c2c1C	inconclusive: 29.1 µM [inhibitor, single point]	–
COC(=O)c1ccc(/C=C/c2c(-c3ccc(OC)cc3)oc3ccccc23)cc1	active: 18.4 µM	–
CCC(C(=O)Nc1cccc(C#N)c1)n1nc(-c2ccccc2)ccc1=O (stereo not given)	inconclusive: 29.1 µM [inhibitor, single point]	–
COC(=O)c1ccccc1NC(=O)CSc1nnc2cc(C)c3cc(C)cc(C)c3n12	inconclusive: 23.1 µM [inhibitor, single point]	–
CC1(C)CC(=O)c2c(O)cc(OCC(=O)N3CCN(c4ccccc4)CC3)cc2O1	inconclusive: 6.51 µM [inhibitor, partial curve]	–
COc1ccc(C(=O)NCc2nnc(SCC(=O)Nc3ccccc3F)o2)cc1	inconclusive: 29.1 µM [inhibitor, single point]	–
O=C(c1ccc2c(c1)N(Cc1ccc(Cl)cc1)C(=O)c1ccccc1S2(=O)=O)N1CCc2ccccc21	active: 5.8 µM	–
Cc1ccc(-c2nnc(Nc3cccc(Br)c3)c3ccccc23)cc1S(=O)(=O)NCC1CCCO1 (stereo not given)	inconclusive: 29.1 µM [inhibitor, single point]	–
COc1ccnc(CS(=O)c2nc3cc(OC(F)F)ccc3[nH]2)c1OC (stereo not given)	inconclusive: 33.5 µM [inhibitor, single point]	–
COc1ccc(Cl)cc1S(=O)(=O)N1CCCC1	inactive	–
Cc1cc(C(C)(C)C)cc(S(=O)(=O)NCCc2ccncc2)c1C	inconclusive: 29.1 µM [inhibitor, single point]	–
CCc1cccc2c(C(=O)C(NCCOC)c3ccccc3)c[nH]c12 (stereo not given)	inconclusive: 29.1 µM [inhibitor, single point]	–
Cc1cccc(NC(=S)NC(=O)CCc2ccccc2)c1C	inconclusive: 23.1 µM [inhibitor, single point]	–
N/C(=N\N=C\c1ccc2c(c1)OCO2)SC1CC(=O)N(c2ccc(C(=O)O)cc2)C1=O (stereo not given)	inactive	–

SMILES	Potency	activity change, negative = growth inhibition
CCOC(=O)c1c(N)nn(C(=O)CC)c1-c1ccccc1	inactive	–
Cc1[nH]c2ccccc2c1/C=C/c1nc2ccccc2c(=O)n1-c1cccc([N+](=O)[O-])c1	inconclusive: 20.6 µM [inhibitor, single point]	–
Cc1cnc(CNc2nc(-c3ccoc3)nc3ccccc23)cn1	inactive	–
CCOC1=C2[C@H](c3ccccc3)N(S(=O)(=O)c3ccc(C)cc3)C(C(C)(C)C)[C@H]2C(C#N)(C#N)C(C#N)(C#N)C1 (stereo not given in full)	active: 2.06 µM	–
COc1c2c(nc3occc13)C(CC=C(C)C)(OC)C(OC(C)=O)CC2 (stereo not given)	inconclusive: 18.4 µM [inhibitor, single point]	–
COc1ccc(/C=C/C(=O)c2cc(F)ccc2OC(=O)c2ccc(OC)c(OC)c2)cc1OC	inconclusive: 23.1 µM [inhibitor, single point]	–
CC(NC(=O)CN1c2cccc3cccc(c23)S1(=O)=O)c1ccccc1 (stereo not given)	inconclusive: 0.0058 µM [inhibitor, full curve, poor fit]	–
COc1ccc2[nH]cc(CCn3ccc(O)c(C/C=C/c4ccccc4)c3=O)c2c1	inactive	–
Nc1c(Cl)cc(-c2csc(NC(CO)c3nc4ccccc4n3CCOCCO)n2)cc1Cl (stereo not given)	inconclusive: 29.1 µM [inhibitor, single point]	–
Brc1ccc(-n2cc(-c3ccccc3)c3c(NN4CCOCC4)ncnc32)cc1	active: 18.4 µM	–
CCOc1ccc(NC(=O)CCn2nc(C)c(S(=O)(=O)N3CCCCC3)c2C)cc1	inconclusive: 29.1 µM [inhibitor, single point] and inconclusive: 5.8 µM [inhibitor, full curve, poor fit]	–
COc1ccccc1CNCC(=O)Nc1cc(S(=O)(=O)N2CCCCCC2)ccc1Cl	inconclusive: 23.1 µM [inhibitor, single point]	–
CC(=O)c1cc(-c2ccccc2)n(CCC(=O)NC2CCCCCC2)c1C	inconclusive: 32.6 µM [inhibitor, single point]	–
CCCC(=O)NC(c1ccc(Cl)cc1)c1ccc2cccnc2c1O (stereo not given)	active: 4.11 µM	–
CC(Cc1ccccn1)NC(=O)CCc1nnc(C2CCCCC2)o1 (stereo not given)	inactive	–
COc1ccc(C2=C(O)C(C)N(c3ccccc3)C2=N)cc1OC (stereo not given)	inactive	–
Cc1cccc(C(=O)Nc2nnc(-c3ccc(C(C)(C)C)cc3)s2)c1	–	inconclusive: -35% [inhibitor]
COc1ccc(-c2csc(Nc3ccc(S(=O)(=O)Nc4cc(C)on4)cc3)n2)cc1	inactive	–
COc1cccc2[nH]c(C(=O)NCc3ccccc3)cc12	inactive	–
Cc1cccc(Nc2nc(-c3ccc(F)c(C)c3)cs2)n1	inconclusive: 29.1 µM [inhibitor, single point]	–
CCc1ccc(N2C(=O)N(CC(=O)C(C)(C)C)c3ccccc3S2(=O)=O)cc1	active: 13 µM	–
O=C(CN1CCCC1c1cccs1)Nc1cc(S(=O)(=O)N2CCCCC2)ccc1Cl (stereo not given)	active: 16.4 µM	–
COc1ccc(OC)c(NC(=O)CSC2=Nc3ccccc3C3=NC(CCC(=O)NCCc4ccccc4)C(=O)N23)c1 (stereo not given)	inconclusive: 23.1 µM [inhibitor, single point]	–
C=CCNC(=S)N/N=C/c1ccc(N(CC)Cc2ccccc2)cc1	active: 20.6 µM	–

SMILES	Potency	activity change, negative = growth inhibition
O=C(NC1CCCC1)C1C(c2ccc(C(F)(F)F)cc2)=Nc2ccccc2N1C(=O)c1ccccc1 (stereo not given)	inconclusive: 23.1 µM [inhibitor, single point]	–
C=CCn1c(SCC(=O)Nc2ccccc2F)nc2ccccc2c1=O	inactive	–
CCCCNS(=O)(=O)CCNCc1ccco1	inactive	–
COc1ccccc1N1CCN(S(=O)(=O)c2c(C)sc3ncn(CC(=O)NCCN(C)C)c(=O)c23)CC1	inactive	–
COc1ccc(COC(=O)CCCN=C2NS(=O)(=O)c3ccccc32)cc1F	inconclusive: 29.1 µM [inhibitor, single point]	–
COc1cc2c(cc1OC)C(c1ccccc1)N(C(=O)C(C)(C)C)CC2 (stereo not given)	inactive	–
CCOC(=O)c1c(NC(=O)Cn2c(C)nc3ccccc32)sc2c1CCC2	active: 20.6 µM	–
COc1cccc(CNc2nc3ccc(C)cc3n3cnnc23)c1	inactive	–
CCOC(=O)C1CCN(C(=O)C2CCN(S(=O)(=O)c3ccc4c(c3)CC(C)N4C(C)=O)CC2)CC1 (stereo not given)	inconclusive: 29.1 µM [inhibitor, single point]	–
Cc1cc(OCC(=O)NCC(C)C)cc(C)c1Br	inconclusive: 25.9 µM [inhibitor, single point]	–
CCn1c(=O)cc(SCC(=O)N2CCN(c3ccccc3OC)CC2)c2ccccc21	active: 18.4 µM	–
COC(=O)C1=C(C)NC(=O)C1(NC(=O)c1ccncc1)C(F)(F)F (stereo not given)	inconclusive: 18.4 µM [inhibitor, single point]	–
O=C(CCN1C(=O)C2CCCCC2C1=O)Nc1nc(-c2ccc(F)c(F)c2)cs1 (stereo not given)	inconclusive: 29.1 µM [inhibitor, single point]	–
Nc1c(NCc2ccccc2)c2ccccc2oc1=O	inconclusive: 12.6 µM [inhibitor, single point]	–
CCOc1ccc(S(=O)(=O)N2CCN(C(=S)NC3CC3)CC2)cc1	inconclusive: 29.1 µM [inhibitor, single point]	–
COc1ccc(CCNC(=O)Cn2nc(C)c3c(C)n(-c4ccc(C)cc4)nc3c2=O)c(OC)c1	active: 16.4 µM	–
CCOC(=O)C(=CNNc1cccc(Cl)c1)C(=O)OCC	active: 11.6 µM	–
Cc1cccc(NC(=O)Cn2c(C)c(C#N)c3ccccc32)c1C	–	inconclusive: -34.1% [inhibitor]
COc1cc(NC(=O)c2nccnc2C(=O)O)cc(OC)c1	inactive	–
CN(C)c1nc(SCC(=O)Nc2ccc(Cl)c(Cl)c2)nc(N2CCOCC2)n1	inactive	–
COc1cc(OC)cc(-c2nnc(NC(=O)CCS(=O)(=O)c3ccc(C)cc3)o2)c1	inconclusive: 18.4 µM [inhibitor, single point]	–
CCOC(=O)N1CCN(S(=O)(=O)c2cc([N+](=O)[O-])c(C)cc2C)CC1	inconclusive: 29.1 µM [inhibitor, single point]	–
